Inconclusive results and toxic doses are left out. Some entries of the source have several records that differ or are many. The other results are left out here. The source may hold further records. Results that share an entry are repeats in other runs, samples, wells, individuals or studies.
Tested on: BDF1 mice, L1210 leukemia sc, survival T/C
Assay: NCI In Vivo Anticancer Drug Screen. Data for tumor model L1210 Leukemia (subcutaneous) in B6D2F1 (BDF1) mice
Details: endpoint: median survival time, higher = longer survival
Method: The antitumor activity of compounds was measured in mice bearing transplantable tumors. Survival or tumor size were measured and the results are expressed as the measurement made in the treated group (T) divided by the measurement made in the vehicle treated control group (C). The tumor model used in this assay is L1210 Leukemia (subcutaneous) in B6D2F1 (BDF1) mice

[1] = dose: 39.0 mg/kg/injection, schedule: Q01DX Z (sc), vehicle: saline

O=C(Nc1ccc(C2=NCCN2)cc1)c1ccc(C(=O)Nc2ccc(C3=NCCN3)cc2)c([N+](=O)[O-])c1
T/C [1]: 104 % of control and 200 % of control

C=CC(O)CN1CC1 (stereo unspecified)
T/C (dose: 3.0 mg/kg/injection, schedule: Q01DX Z (sc), vehicle: saline): 109 % of control and 160 % of control

CN(N=O)C(N)=O
T/C [1]: 110 % of control, 113 % of control, 161 % of control

S=c1nc[nH]c2nc[nH]c12
T/C (dose: 47.0 mg/kg/injection, schedule: Q01DX Z (sc), vehicle: methylcellulose (MC)): 109 % of control and 150 % of control | T/C (dose: 78.0 mg/kg/injection, schedule: Q01DX Z (sc), vehicle: methylcellulose (MC)): 109 % of control and 150 % of control | T/C (dose: 180.0 mg/kg/injection, schedule: Q01DX Z (sc), vehicle: methylcellulose (MC)): 120 % of control and 155 % of control

O=C1CN(CCN2CC(=O)NC(=O)C2)CC(=O)N1
T/C (dose: 50.0 mg/kg/injection, schedule: Q01DX009 (sc), vehicle: steriod suspending solution): 105 % of control and 150 % of control

C1CN1c1nc(N2CC2)nc(N2CC2)n1
T/C (dose: 1.8 mg/kg/injection, schedule: Q01DX Z (sc), vehicle: saline): 120 % of control and 150 % of control

CC(CN1CC(=O)NC(=O)C1)N1CC(=O)NC(=O)C1 (stereo unspecified)
T/C (dose: 400.0 mg/kg/injection, schedule: Q04DX003 (sc), vehicle: steriod suspending solution): 110 % of control and 175 % of control

O=P(N1CCOCC1)(N1CC1)N1CC1
T/C (dose: 14.0 mg/kg/injection, schedule: Q01DX Z (sc), vehicle: saline): 116 % of control and 150 % of control

Nc1nc(=S)c2[nH]cnc2[nH]1
T/C (dose: 2.16 mg/kg/injection, schedule: Q01DX Z (sc), vehicle: methylcellulose (MC)): 113 % of control and 160 % of control

CCCCCCOP(=O)(N1CC1)N1CC1
T/C [1]: 120 % of control, 150 % of control, 160 % of control

Cn1cnc([N+](=O)[O-])c1Sc1nc(N)nc2nc[nH]c12
T/C (dose: 10.0 mg/kg/injection, schedule: Q01DX Z (sc), vehicle: methylcellulose (MC)): 113 % of control and 160 % of control | T/C (dose: 17.0 mg/kg/injection, schedule: Q01DX Z (sc), vehicle: methylcellulose (MC)): 113 % of control and 150 % of control | T/C (dose: 28.0 mg/kg/injection, schedule: Q01DX Z (sc), vehicle: methylcellulose (MC)): 113 % of control and 150 % of control

O=P1(N(CCCl)CCCl)NCCCO1 (stereo unspecified)
T/C (dose: 180.0 mg/kg/injection, schedule: Q01DX Z (oral), vehicle: saline): 122 % of control and 160 % of control

From PubChem BioAssay AID250 (DTP/NCI, 2004)
